The other results are listed elsewhere or left out.
What follows are sequences tested against no compound (DMSO) (assay: log2 fold change of degron read counts, EGFP-low vs EGFP+ sorted cells; higher = lower degron-EGFP level without compound (poor expression or instability)). Conditions: compound: DMSO control; 18 h.
With FLCNQCGRHFTQKGNLLRHIKL the “log2 fold change of degron read counts” value was 0.0803. For FECPICGRMFTQKGNLLRHIKL, the “log2 fold change of degron read counts” value was 0.0595. For FTCPICGRSFTQKGNLLRHIKL, the “log2 fold change of degron read counts” value was -0.12. FFCDICGAAFTQKGNLLRHIKL was tested, and the “log2 fold change of degron read counts” value was -0.578. With FECEICGRFFTQKGNLLRHIKL the “log2 fold change of degron read counts” value was -2.68. FECEICGHRFTQKGNLLRHIKL was tested, and the “log2 fold change of degron read counts” value was -2.52. In the case of FHCNVCGAMFTQKGNLLRHIKL, the “log2 fold change of degron read counts” value is reported as -0.945. LCCEICGFFCTQKGNLLRHIKL was tested, and the “log2 fold change of degron read counts” value was 1.28. FWCNQCGAQFTQKGNLLRHIKL was tested, and the “log2 fold change of degron read counts” value was -0.0268. With FLCDICGAGFTQKGNLLRHIKL the “log2 fold change of degron read counts” value was -1.39. In the case of FLCEQCGAFFTQKGNLLRHIKL, the “log2 fold change of degron read counts” value is reported as -0.148. For FFCEICGRMFTQKGNLLRHIKL, the “log2 fold change of degron read counts” value was 0.29. In the case of FNCPICGADFTQKGNLLRHIKL, the “log2 fold change of degron read counts” value is reported as -0.376. In the case of FSCDICGADFTQKGNLLRHIKL, the “log2 fold change of degron read counts” value is reported as -1.85. With FCCEICGRHFTQKGNLLRHIKL the “log2 fold change of degron read counts” value was -0.978. In the case of FYCPQCGAPFTQKGNLLRHIKL, the “log2 fold change of degron read counts” value is reported as -0.426. FQCEVCGAHFTQKGNLLRHIKL was tested, and the “log2 fold change of degron read counts” value was -1.67. In the case of FRCEICGHCFTQKGNLLRHIKL, the “log2 fold change of degron read counts” value is reported as -1.3. For FRCPICGAMFTQKGNLLRHIKL, the “log2 fold change of degron read counts” value was 0.559. In the case of FNCNQCGRPFTQKGNLLRHIKL, the “log2 fold change of degron read counts” value is reported as 0.241. FYCPICGHFFTQKGNLLRHIKL was tested, and the “log2 fold change of degron read counts” value was 0.886. With FQCPICGAPFTQKGNLLRHIKL the “log2 fold change of degron read counts” value was 0.319. In the case of FGCPICGHPFTQKGNLLRHIKL, the “log2 fold change of degron read counts” value is reported as 0.644. In the case of FWCNQCGRYFTQKGNLLRHIKL, the “log2 fold change of degron read counts” value is reported as 1.78. In the case of FCCPICGAKFTQKGNLLRHIKL, the “log2 fold change of degron read counts” value is reported as -0.585. FNCDVCGAVFTQKGNLLRHIKL was tested, and the “log2 fold change of degron read counts” value was -1.19. For FACNQCGHGFTQKGNLLRHIKL, the “log2 fold change of degron read counts” value was 0.173. For FTCDQCGAFFTQKGNLLRHIKL, the “log2 fold change of degron read counts” value was -1. In the case of FACSVCGHMFTQKGNLLRHIKL, the “log2 fold change of degron read counts” value is reported as -0.089. FECPICGHAFTQKGNLLRHIKL was tested, and the “log2 fold change of degron read counts” value was -1.16. For FCCSVCGHHFTQKGNLLRHIKL, the “log2 fold change of degron read counts” value was -0.215. FECDVCGAGFTQKGNLLRHIKL was tested, and the “log2 fold change of degron read counts” value was -1.75. With FACEVCGAKFTQKGNLLRHIKL the “log2 fold change of degron read counts” value was -2.17. LQCEICGFECTQKGNLLRHIKL was tested, and the “log2 fold change of degron read counts” value was -1.05. In the case of FDCEICGAMFTQKGNLLRHIKL, the “log2 fold change of degron read counts” value is reported as -0.787. In the case of LQCPICGFKCTQKGNLLRHIKL, the “log2 fold change of degron read counts” value is reported as 0.357. In the case of LQCNQCGFECTQKGNLLRHIKL, the “log2 fold change of degron read counts” value is reported as -0.926. With LQCEICGFGCTQKGNLLRHIKL the “log2 fold change of degron read counts” value was 0.00964. In the case of FHCPICGRLFTQKGNLLRHIKL, the “log2 fold change of degron read counts” value is reported as -0.575. FWCNQCGRFFTQKGNLLRHIKL was tested, and the “log2 fold change of degron read counts” value was 1.97. FTCPICGHYFTQKGNLLRHIKL was tested, and the “log2 fold change of degron read counts” value was -0.153. In the case of FCCNICGAPFTQKGNLLRHIKL, the “log2 fold change of degron read counts” value is reported as 0.374. In the case of FVCNICGAPFTQKGNLLRHIKL, the “log2 fold change of degron read counts” value is reported as 0.0843. For LWCNQCGFNCTQKGNLLRHIKL, the “log2 fold change of degron read counts” value was 2.01. With FFCDICGAGFTQKGNLLRHIKL the “log2 fold change of degron read counts” value was -1.16. FRCDVCGAPFTQKGNLLRHIKL was tested, and the “log2 fold change of degron read counts” value was -0.453. FMCNICGAGFTQKGNLLRHIKL was tested, and the “log2 fold change of degron read counts” value was -0.436. For FNCEICGAVFTQKGNLLRHIKL, the “log2 fold change of degron read counts” value was -1.41. For LQCPICGFYCTQKGNLLRHIKL, the “log2 fold change of degron read counts” value was 1.1. FECNICGAYFTQKGNLLRHIKL was tested, and the “log2 fold change of degron read counts” value was -0.522.

Reference: the supplement of paper PMC12645437, “Orthogonal IMiD-Degron Pairs Induce Selective Protein Degradation in Cells” (ACS Chemical Biology, 2025)
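Further: jurkat cells carrying a lentiviral library of mutant zinc finger degrons fused to EGFP plus mCherry, mCherry+ cells FACS sorted, degron abundance counted by next-generation sequencing.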
